Among the data in the supplement of paper PMC11880418 are ALDHbr values, retold here.

Where a name gives a salt, the structure may show the parent alone. This is one part of the list. The data scatter; read single values as rough. Residues, ends and D or L forms follow the SMILES beside them.
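Note: High-content imaging of ALDEFLUOR-stained cells with Hoechst-labelled nuclei in 384-well plates, triplicate wells, scored as Z-score against 0.1% DMSO vehicle, negative meaning fewer ALDHbr cells.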

The experiment relates to T84. Nature of the experiment: ALDHbr (CSC) cell proportion score relative to DMSO vehicle (ratio to DMSO); breast (SUM159) / gastric (MKN45) / pancreatic (PANC1) / colon cancer lines; ALDHbr cells have high ALDH activity and are rich in cancer stem cells (CSC); higher = more CSC (ALDHbr) cells remaining. Conditions: 10 µM; 72 h.
With `CCN(CC)CCNC(C(=O)OCCC(C)C)c1ccccc1` (stereo unspecified) [Camylofine chlorhydrate], the ALDHbr was 0.891.

Regarding `CC(=O)OCC(=O)[C@@]1(O)CC[C@H]2[C@@H]3CCC4=CC(=O)CC[C@]4(C)[C@@]3(F)[C@@H](O)C[C@@]21C` [Fludrocortisone acetate], the ALDHbr worked out at 0.96. `CC(C(=O)O)c1ccc(N2Cc3ccccc3C2=O)cc1` (stereo unspecified) [Indoprofen]: the ALDHbr is 1. The value for `O=C1CN2Cc3c(ccc(Cl)c3Cl)N=C2N1` [Anagrelide] was 0.948; that for `CC(C)(C)NC[C@H](O)COc1cccc2c1CCCC2=O` [(-) -Levobunolol hydrochloride] was 0.871. `CCCc1nc(C)c2c(=O)nc(-c3cc(S(=O)(=O)N4CCN(CC)CC4)ccc3OCC)[nH]n12` [Vardenafil]: the ALDHbr turned out to be 0.773.

Take `CC1(C)O[C@@H]2C[C@H]3[C@@H]4CCC5=CC(=O)C=C[C@]5(C)[C@H]4[C@@H](O)C[C@]3(C)[C@]2(C(=O)CO)O1` [Desonide]: the ALDHbr is 0.792. With `CNCCCC12CCC(c3ccccc31)c1ccccc12` [Maprotiline hydrochloride], the ALDHbr was 0.457. The result for `CNc1ncnc2c1ncn2[C@@H]1O[C@H](CO)[C@@H](O)[C@H]1O` [N6-methyladenosine] reads 0.917; that for `C=CCOc1ccccc1OCC(O)CNC(C)C` (stereo unspecified) [Oxprenolol hydrochloride], 1.03.

Consider `NS(=O)(=O)c1cc2c(cc1Cl)N=CNS2(=O)=O` [Chlorothiazide], for which the ALDHbr stood at 0.941.

Turning to `Cc1nc(=O)c2cc(CN(C)c3ccc(C(=O)N[C@@H](CCC(=O)O)C(=O)O)s3)ccc2[nH]1` [Raltitrexed], the ALDHbr turned out to be 0.365. With `NC12CC3CC(CC(C3)C1)C2` [Adamantamine fumarate], the ALDHbr amounted to 1.07. Consider `CCN(CCO)CCCC(C)Nc1ccnc2cc(Cl)ccc12` (stereo unspecified) [Hydroxychloroquine sulfate], for which the ALDHbr was determined as 0.979. Consider `COc1ccc(C(Cl)=C(c2ccc(OC)cc2)c2ccc(OC)cc2)cc1` [Chlorotrianisene], for which the ALDHbr worked out at 0.864. For `CC(C)Oc1ccc2c(=O)c(-c3ccccc3)coc2c1` [Ipriflavone], the ALDHbr worked out at 0.735.

In the case of `C(=C\c1ccccc1)/CN1CCN(C(c2ccccc2)c2ccccc2)CC1` [Cinnarizine], the ALDHbr is 0.99. On to `CCC(C)(C)c1ccc(CC(C)CN2C[C@@H](C)O[C@@H](C)C2)cc1` (stereo partly specified) [Amorolfine hydrochloride], for which the ALDHbr turned out to be 0.858. Turning to `CCC(=O)OCC(=O)[C@@]1(OC(=O)CC)[C@H](C)C[C@H]2[C@H]3[C@H]([C@@H](O)C[C@@]21C)[C@@]1(C)C=CC(=O)C=C1C[C@H]3Cl` [Alclometasone dipropionate], the ALDHbr amounted to 1.05.

Turning to `CC1(C)S[C@@H]2[C@H](NC(=O)[C@H](N)c3ccccc3)C(=O)N2[C@H]1C(=O)O` [Ampicillin trihydrate], the ALDHbr is 0.79. As for `CCC1NC(=O)c2cc(S(N)(=O)=O)c(Cl)cc2N1` (stereo unspecified) [Quinethazone], the ALDHbr turned out to be 0.919. Consider `CC(=O)N[C@@H](CC(=O)O)C(=O)N[C@@H](CCC(=O)O)C(=O)O` [Spaglumic acid] (Ac-Asp-Glu-OH), for which the ALDHbr is 0.877.

With `C#C[C@]1(O)CC[C@H]2[C@@H]3CCC4=CC(=O)CC[C@@H]4[C@H]3CC[C@@]21CC` [Norgestrel-(-)-D], the ALDHbr came out at 0.925.

Take `CCN(CC)CCOC(=O)C1(C2CCCCC2)CCCCC1` [Dicyclomine hydrochloride]: the ALDHbr stood at 1.13. Take `Cc1ccc(-c2cc(C(F)(F)F)nn2-c2ccc(S(N)(=O)=O)cc2)cc1` [Celecoxib]: the ALDHbr worked out at 0.78. In the case of `C#C[C@]1(O)CC[C@H]2[C@@H]3CCC4=C(CCC(=O)C4)[C@H]3CC[C@@]21C` [Norethynodrel], the ALDHbr stood at 0.706.

For the molecule `C[C@H](CCC(=O)O)[C@H]1CC[C@H]2[C@@H]3CC[C@@H]4C[C@H](O)CC[C@]4(C)[C@H]3CC[C@]12C` [Lithocholic acid], the ALDHbr was found to be 1.14. `O=C(c1ccc(OCCN2CCCCC2)cc1)c1c(-c2ccc(O)cc2)sc2cc(O)ccc12` [Raloxifene hydrochloride]: the ALDHbr came to 0.227.

On to `COCCc1ccc(OCC(O)CNC(C)C)cc1` (racemic) [Metoprolol-(+,-) (+)-tartrate salt], for which the ALDHbr is 0.989.

Regarding `CC(=O)[C@@]12O[C@](C)(c3ccccc3)O[C@@H]1C[C@H]1[C@@H]3CCC4=CC(=O)CC[C@]4(C)[C@H]3CC[C@@]12C` [Algestone acetophenide], the ALDHbr came out at 0.549.

For `CC(=O)OCC(=O)[C@@]1(O)[C@H](C)C[C@H]2[C@@H]3CCC4=CC(=O)C=C[C@]4(C)[C@@]3(F)[C@@H](O)C[C@@]21C` [Dexamethasone acetate], the ALDHbr came out at 0.974.
